# Data taken from the supplement of paper PMC8728848.
# The other results are listed elsewhere or left out.
# B1: Si Bti9 1b-V5-his (Solanum lycopersicum) (protein)
# chain: MQCNRGCDLALASFYVWRGSNLTLISEMFSTSIADIVSYNNRDNIPNQDSVIAGTRINIPFRCDCLNDGEVLGHAFPYRVKSGDTYDLVARNYSDLTTAQWMMKFNSYPENNIPNTVNLSVVVNCSCGNSDVSKDFGLFVTYPVRAEDNLTSVASAANVSEDIIRRYNPAAVSILDIGQGIIYIPGRDRNGNFPPLPTSTDGLSGGAKKGGRADPAFLYKVVINSKLEGKPIPNPLLGLDSTRTGHHHHHH
# Legend:
# Assay in all cases: glycan array binding signal (z-score within array); higher = stronger binding
# Settings in all cases: glycan notation: IUPAC condensed, linker removed
# Neu5Ac(a2-8)Neu5Ac = target: Neu5Ac(a2-8)Neu5Ac
# Outline: (§1)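 The binding signal is a Z-score computed within each array and averaged over linkers. Arrays of the same protein sequence at different concentrations or buffers were also averaged together. Data originate from 3228 arrays in the Consortium for Functional Glycomics database, kept only where the protein sequence was available.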
# [1] = target: Neu5Ac(a2-8)Neu5Ac(a2-3)Gal(b1-3)GalNAc(b1-4)[Neu5Ac(a2-3)]Gal(b1-4)Glc
# Outline: as §1
# [2] = target: Neu5Ac(a2-8)Neu5Ac(a2-3)Gal(b1-3)GalNAc(b1-4)[Neu5Ac(a2-8)Neu5Ac(a2-3)]Gal(b1-4)Glc
# Outline: as §1
# [3] = target: Neu5Ac(a2-8)Neu5Ac(a2-3)Gal(b1-4)Glc
# Outline: as §1
# [4] = target: Neu5Ac(a2-8)Neu5Ac(a2-3)Gal(b1-4)GlcNAc
# Outline: as §1
# [5] = target: Neu5Ac(a2-8)Neu5Ac(a2-3)[Gal(b1-3)GalNAc(b1-4)]Gal(b1-4)Glc
# Outline: as §1
# [6] = target: Neu5Ac(a2-8)Neu5Ac(a2-3)[GalNAc(b1-4)]Gal(b1-4)Glc
# Outline: as §1
# [7] = target: Neu5Ac(a2-8)Neu5Ac(a2-8)Neu5Ac
# Outline: as §1
# [8] = target: Neu5Ac(a2-8)Neu5Ac(a2-8)Neu5Ac(a2-3)Gal(b1-4)Glc
# Outline: as §1
# [9] = target: Neu5Ac(a2-8)Neu5Ac(a2-8)Neu5Ac(a2-3)[Gal(b1-3)GalNAc(b1-4)]Gal(b1-4)Glc
# Outline: as §1
# [10] = target: Neu5Ac(a2-8)Neu5Ac(a2-8)Neu5Ac(a2-3)[GalNAc(b1-4)]Gal(b1-4)Glc
# Outline: as §1
# [11] = target: Neu5Ac(a2-8)Neu5Ac(a2-8)Neu5Ac(a2-8)Neu5Ac(a2-3)[GalNAc(b1-4)]Gal(b1-4)Glc
# Outline: as §1
# [12] = target: Neu5Ac(a2-8)Neu5Gc(a2-3)Gal(b1-4)GlcNAc
# Outline: as §1
# [13] = target: Neu5Ac(b2-6)Gal(b1-4)GlcNAc
# Outline: as §1
# Neu5Ac(b2-6)GalNAc = target: Neu5Ac(b2-6)GalNAc
# Outline: as §1
# [14] = target: Neu5Ac9Ac(a2-3)Gal(b1-3)GlcNAc
# Outline: as §1
# [15] = target: Neu5Ac9Ac(a2-3)Gal(b1-4)GlcNAc
# Outline: as §1
# [16] = target: Neu5Ac9Ac(a2-6)Gal(b1-4)GlcNAc
# Outline: as §1
# [17] = target: Neu5Gc(a2-3)Gal(b1-3)GlcNAc
# Outline: as §1
# [18] = target: Neu5Gc(a2-3)Gal(b1-3)[Fuc(a1-4)]GlcNAc
# Outline: as §1
# Neu5Gc(a2-3)Gal(b1-4)Glc = target: Neu5Gc(a2-3)Gal(b1-4)Glc
# Outline: as §1
# [19] = target: Neu5Gc(a2-3)Gal(b1-4)GlcNAc
# Outline: as §1
# [20] = target: Neu5Gc(a2-3)Gal(b1-4)GlcNAc(b1-3)Gal(b1-4)GlcNAc(b1-2)Man(a1-3)[Neu5Gc(a2-3)Gal(b1-4)GlcNAc(b1-3)Gal(b1-4)GlcNAc(b1-2)Man(a1-6)]Man(b1-4)GlcNAc(b1-4)GlcNAc
# Outline: as §1
# [21] = target: Neu5Gc(a2-3)Gal(b1-4)[Fuc(a1-3)]GlcNAc
# Outline: as §1
# [22] = target: Neu5Gc(a2-6)Gal(b1-4)GlcNAc
# Outline: as §1
# Neu5Gc(a2-6)GalNAc = target: Neu5Gc(a2-6)GalNAc
# Outline: as §1
# [23] = target: Neu5Gc(a2-8)Neu5Ac(a2-3)Gal(b1-4)GlcNAc
# Outline: as §1
# [24] = target: Neu5Gc(a2-8)Neu5Gc(a2-3)Gal(b1-4)GlcNAc
# Outline: as §1
# [25] = target: Neu5Gc(a2-8)Neu5Gc(a2-3)Gal(b1-4)GlcNAc(b1-3)Gal(b1-4)GlcNAc
# Outline: as §1
# [26] = target: Neu5Gc(a2-8)Neu5Gc(a2-6)Gal(b1-4)GlcNAc
# Outline: as §1
# [27] = target: Neu5Gc(b2-6)Gal(b1-4)GlcNAc
# Outline: as §1
binder,measurement,setting,value
B1,glycan array binding signal (z-score),Neu5Ac(a2-8)Neu5Ac,-0.231
same,glycan array binding signal (z-score),[1],-0.338
same,glycan array binding signal (z-score),[2],-0.186
same,glycan array binding signal (z-score),[3],-0.192
same,glycan array binding signal (z-score),[4],-0.343
same,glycan array binding signal (z-score),[5],-0.341
same,glycan array binding signal (z-score),[6],-0.076
same,glycan array binding signal (z-score),[7],-0.323
same,glycan array binding signal (z-score),[8],-0.253
same,glycan array binding signal (z-score),[9],-0.135
same,glycan array binding signal (z-score),[10],-0.31
same,glycan array binding signal (z-score),[11],-0.164
same,glycan array binding signal (z-score),[12],-0.378
same,glycan array binding signal (z-score),[13],-0.175
same,glycan array binding signal (z-score),Neu5Ac(b2-6)GalNAc,-0.242
same,glycan array binding signal (z-score),[14],0.81
same,glycan array binding signal (z-score),[15],-0.341
same,glycan array binding signal (z-score),[16],0.222
same,glycan array binding signal (z-score),[17],-0.159
same,glycan array binding signal (z-score),[18],0.102
same,glycan array binding signal (z-score),Neu5Gc(a2-3)Gal(b1-4)Glc,-0.216
same,glycan array binding signal (z-score),[19],-0.319
same,glycan array binding signal (z-score),[20],-0.126
same,glycan array binding signal (z-score),[21],-0.132
same,glycan array binding signal (z-score),[22],-0.094
same,glycan array binding signal (z-score),Neu5Gc(a2-6)GalNAc,-0.239
same,glycan array binding signal (z-score),[23],-0.395
same,glycan array binding signal (z-score),[24],-0.387
same,glycan array binding signal (z-score),[25],-0.317
same,glycan array binding signal (z-score),[26],-0.311
same,glycan array binding signal (z-score),[27],-0.257
